Paper PMC9911399, “Two distinct binding modes provide the RNA-binding protein RbFox with extraordinary sequence specificity”
Where a chain is given by its changes, count along the chain named. The list shows a part of the results.

T1: RBFOX1 RRM RbFoxmut (Fox-RRM*) (Homo sapiens, UniProt Q9NWB1 109-208, R118D;E147R;N151S;E152T)
T1 sequence: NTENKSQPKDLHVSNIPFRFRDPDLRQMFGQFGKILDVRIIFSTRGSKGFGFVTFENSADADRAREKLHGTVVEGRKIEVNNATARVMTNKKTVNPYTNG

B1: AUUUUUU (DNA:RNA)
RNA: GGGAGACCGGAAUUCAGAUUGUCCAUUUUUUUUAAAUCCCGUCGUAGCCACCA
DNA 1: CAATCTGAATTCCGGTCTCCC
DNA 2: TGGTGGCTACGACGGGATT
B2: ACGCACC (DNA:RNA)
RNA: B1 RNA with U26C, U27G, U28C, U29A, U30C, U31C
DNA 1: CAATCTGAATTCCGGTCTCCC
DNA 2: TGGTGGCTACGACGGGATT
B3: GGAUGUU (DNA:RNA)
RNA: B1 RNA with A25G, U26G, U27A, U29G
DNA 1: CAATCTGAATTCCGGTCTCCC
DNA 2: TGGTGGCTACGACGGGATT
B4: GCUGGCA (DNA:RNA)
RNA: B1 RNA with A25G, U26C, U28G, U29G, U30C, U31A
DNA 1: CAATCTGAATTCCGGTCTCCC
DNA 2: TGGTGGCTACGACGGGATT
B5: UAGAGAA (DNA:RNA)
RNA: GGGAGACCGGAAUUCAGAUUGUCCUAGAGAAUUAAAUCCCGUCGUAGCCACCA
DNA 1: CAATCTGAATTCCGGTCTCCC
DNA 2: TGGTGGCTACGACGGGATT
B6: UCAUGUG (DNA:RNA)
RNA: B1 RNA with A25U, U26C, U27A, U29G, U31G
DNA 1: CAATCTGAATTCCGGTCTCCC
DNA 2: TGGTGGCTACGACGGGATT
B7: GGGCUGA (DNA:RNA)
RNA: B5 RNA with U25G, A26G, A28C, G29U, A30G
DNA 1: CAATCTGAATTCCGGTCTCCC
DNA 2: TGGTGGCTACGACGGGATT
B8: UGCAAGU (DNA:RNA)
RNA: B5 RNA with A26G, G27C, G29A, A30G, A31U
DNA 1: CAATCTGAATTCCGGTCTCCC
DNA 2: TGGTGGCTACGACGGGATT
B9: AGGCGCU (DNA:RNA)
RNA: B1 RNA with U26G, U27G, U28C, U29G, U30C
DNA 1: CAATCTGAATTCCGGTCTCCC
DNA 2: TGGTGGCTACGACGGGATT
B10: CAAUCUA (DNA:RNA)
RNA: B1 RNA with A25C, U26A, U27A, U29C, U31A
DNA 1: CAATCTGAATTCCGGTCTCCC
DNA 2: TGGTGGCTACGACGGGATT
B11: UGCGGAA (DNA:RNA)
RNA: B5 RNA with A26G, G27C, A28G
DNA 1: CAATCTGAATTCCGGTCTCCC
DNA 2: TGGTGGCTACGACGGGATT
B12: AGGAAAC (DNA:RNA)
RNA: B5 RNA with U25A, A26G, G29A, A31C
DNA 1: CAATCTGAATTCCGGTCTCCC
DNA 2: TGGTGGCTACGACGGGATT
B13: CCCUCUA (DNA:RNA)
RNA: B1 RNA with A25C, U26C, U27C, U29C, U31A
DNA 1: CAATCTGAATTCCGGTCTCCC
DNA 2: TGGTGGCTACGACGGGATT
B14: CUGUGCC (DNA:RNA)
RNA: B1 RNA with A25C, U27G, U29G, U30C, U31C
DNA 1: CAATCTGAATTCCGGTCTCCC
DNA 2: TGGTGGCTACGACGGGATT
B15: AAUGAAG (DNA:RNA)
RNA: B1 RNA with U26A, U28G, U29A, U30A, U31G
DNA 1: CAATCTGAATTCCGGTCTCCC
DNA 2: TGGTGGCTACGACGGGATT
B16: CCAUAAU (DNA:RNA)
RNA: B1 RNA with A25C, U26C, U27A, U29A, U30A
DNA 1: CAATCTGAATTCCGGTCTCCC
DNA 2: TGGTGGCTACGACGGGATT
B17: CCGACAA (DNA:RNA)
RNA: B5 RNA with U25C, A26C, G29C
DNA 1: CAATCTGAATTCCGGTCTCCC
DNA 2: TGGTGGCTACGACGGGATT
B18: CGAUUUC (DNA:RNA)
RNA: B1 RNA with A25C, U26G, U27A, U31C
DNA 1: CAATCTGAATTCCGGTCTCCC
DNA 2: TGGTGGCTACGACGGGATT
B19: CGUGUGG (DNA:RNA)
RNA: B1 RNA with A25C, U26G, U28G, U30G, U31G
DNA 1: CAATCTGAATTCCGGTCTCCC
DNA 2: TGGTGGCTACGACGGGATT
B20: UGGGGUC (DNA:RNA)
RNA: B5 RNA with A26G, A28G, A30U, A31C
DNA 1: CAATCTGAATTCCGGTCTCCC
DNA 2: TGGTGGCTACGACGGGATT
B21: CAUCAUC (DNA:RNA)
RNA: B1 RNA with A25C, U26A, U28C, U29A, U31C
DNA 1: CAATCTGAATTCCGGTCTCCC
DNA 2: TGGTGGCTACGACGGGATT
B22: UAGAACG (DNA:RNA)
RNA: B5 RNA with G29A, A30C, A31G
DNA 1: CAATCTGAATTCCGGTCTCCC
DNA 2: TGGTGGCTACGACGGGATT
B23: AGCUCCC (DNA:RNA)
RNA: B1 RNA with U26G, U27C, U29C, U30C, U31C
DNA 1: CAATCTGAATTCCGGTCTCCC
DNA 2: TGGTGGCTACGACGGGATT
B24: CGGUCGC (DNA:RNA)
RNA: B1 RNA with A25C, U26G, U27G, U29C, U30G, U31C
DNA 1: CAATCTGAATTCCGGTCTCCC
DNA 2: TGGTGGCTACGACGGGATT
B25: CUUAUCC (DNA:RNA)
RNA: B1 RNA with A25C, U28A, U30C, U31C
DNA 1: CAATCTGAATTCCGGTCTCCC
DNA 2: TGGTGGCTACGACGGGATT
B26: AACCACG (DNA:RNA)
RNA: B1 RNA with U26A, U27C, U28C, U29A, U30C, U31G
DNA 1: CAATCTGAATTCCGGTCTCCC
DNA 2: TGGTGGCTACGACGGGATT
B27: CCCCCGG (DNA:RNA)
RNA: GGGAGACCGGAAUUCAGAUUGUCCCCCCCGGUUAAAUCCCGUCGUAGCCACCA
DNA 1: CAATCTGAATTCCGGTCTCCC
DNA 2: TGGTGGCTACGACGGGATT
B28: AGCCCCA (DNA:RNA)
RNA: B27 RNA with C25A, C26G, G30C, G31A
DNA 1: CAATCTGAATTCCGGTCTCCC
DNA 2: TGGTGGCTACGACGGGATT
B29: UUCGCGC (DNA:RNA)
RNA: B27 RNA with C25U, C26U, C28G, G31C
DNA 1: CAATCTGAATTCCGGTCTCCC
DNA 2: TGGTGGCTACGACGGGATT
B30: AGAUAUU (DNA:RNA)
RNA: B1 RNA with U26G, U27A, U29A
DNA 1: CAATCTGAATTCCGGTCTCCC
DNA 2: TGGTGGCTACGACGGGATT
B31: CAUGUCA (DNA:RNA)
RNA: B1 RNA with A25C, U26A, U28G, U30C, U31A
DNA 1: CAATCTGAATTCCGGTCTCCC
DNA 2: TGGTGGCTACGACGGGATT

Target: T1, RBFOX1 RRM RbFoxmut (Fox-RRM*)
Assay: EMSA; HiTS-Eq, 1 nM pool, 10 min; buffer printed only for the single-RNA assays: 10 mM Tris pH 7.5, 150 mM NaCl, 3.4 mM EDTA, 0.001% NP-40, 30 C
Conditions: tags: His6 N-terminal (pET28a); label: 5' 32P
How it was run: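 A pool of RNA with 7 randomized nucleotides, 5′-radiolabelled and with DNA-annealed flanks, was equilibrated at 1 nM for 10 min in 50 µL with purified RbFox RRM, wild type or mutant, across increasing protein concentrations. Free RNA was separated by 8% native PAGE, excised, reverse-transcribed, barcoded by PCR and sequenced. Relative association constants were obtained from read-count changes of each RNA species versus the control reaction and normalised to the cognate motif.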

| Binder | binding signal |
| --- | --- |
| B1 | 0.13 KA relative to UGCAUGU |
| B2 | 0.121 KA relative to UGCAUGU |
| B3 | 0.213 KA relative to UGCAUGU |
| B4 | 0.145 KA relative to UGCAUGU |
| B5 | 0.0734 KA relative to UGCAUGU |
| B6 | 0.149 KA relative to UGCAUGU |
| B7 | 0.222 KA relative to UGCAUGU |
| B8 | 0.103 KA relative to UGCAUGU |
| B9 | 0.0903 KA relative to UGCAUGU |
| B10 | 0.0632 KA relative to UGCAUGU |
| B11 | 0.143 KA relative to UGCAUGU |
| B12 | 0.0743 KA relative to UGCAUGU |
| B13 | 0.0877 KA relative to UGCAUGU |
| B14 | 0.251 KA relative to UGCAUGU |
| B15 | 0.116 KA relative to UGCAUGU |
| B16 | 0.0793 KA relative to UGCAUGU |

| Binder | binding signal |
| --- | --- |
| B17 | 0.058 KA relative to UGCAUGU |
| B18 | 0.0719 KA relative to UGCAUGU |
| B19 | 0.0868 KA relative to UGCAUGU |
| B20 | 0.209 KA relative to UGCAUGU |
| B21 | 0.0619 KA relative to UGCAUGU |
| B22 | 0.181 KA relative to UGCAUGU |
| B23 | 0.0327 KA relative to UGCAUGU |
| B24 | 0.0578 KA relative to UGCAUGU |
| B25 | 0.0826 KA relative to UGCAUGU |
| B26 | 0.11 KA relative to UGCAUGU |
| B27 | 0.0914 KA relative to UGCAUGU |
| B28 | 0.0512 KA relative to UGCAUGU |
| B29 | 0.0915 KA relative to UGCAUGU |
| B30 | 0.12 KA relative to UGCAUGU |
| B31 | 0.0975 KA relative to UGCAUGU |
